Results published in the antibiotic and cytotoxicity screens of Wong et al. (2023).
Some of the results follow.

What follows are compounds tested on S. aureus RN4220 (assay: growth inhibition call (relative growth <= 0.2)). Conditions: 50 µM.

Growth inhibition call, inactive:
NCCCCCc1nc2ccccc2[nH]1
C[C@H]1CCCCO[C@@H](CN(C)CC2CCCCC2)[C@@H](C)CN([C@@H](C)CO)C(=O)c2cc(NC(=O)Nc3cccc4ccccc34)ccc2O1
O=C(O)C[C@H]1CC[C@H]2[C@@H](COC[C@H](O)CN2S(=O)(=O)c2ccc(F)cc2)O1
CC(C)NC(=O)Nc1cccc2c1O[C@H](CN(C)S(=O)(=O)c1ccc(F)cc1)[C@@H](C)CN([C@@H](C)CO)C2=O
CO[C@H]1CN(C)C(=O)c2cc(NC(=O)C3CC3)ccc2OC[C@@H](C)N(C(=O)C2CCOCC2)C[C@H]1C
CC(C)NC(=O)Nc1ccc2c(c1)CC(=O)N([C@H](C)CO)C[C@H](C)[C@H](CN(C)C(=O)Nc1ccc3c(c1)OCO3)O2
C[C@@H]1CCCCO[C@@H](CN(C)C(=O)c2ccncc2)[C@H](C)CN([C@H](C)CO)C(=O)c2cc(NC(=O)C3CCCCC3)ccc2O1
Cc1noc(C)c1NC(=O)N(C)C[C@@H]1Oc2c(NC(=O)c3ccc(-c4nccs4)cc3)cccc2C(=O)N([C@H](C)CO)C[C@@H]1C
C[C@@H]1CCCCO[C@@H](CN(C)C(=O)Nc2ccc(C(F)(F)F)cc2)[C@H](C)CN([C@H](C)CO)C(=O)c2cc(NS(C)(=O)=O)ccc2O1
CN1CCN(C(=O)C[C@@H]2C=C[C@@H](NC(=O)Cc3ccccn3)[C@@H](CO)O2)CC1
C[C@H](CO)N1C[C@H](C)[C@H](CN(C)Cc2ccc(C(F)(F)F)cc2)OCCCC[C@H](C)Oc2ccc(NS(=O)(=O)c3cccs3)cc2C1=O
C[C@@H]1CN([C@H](C)CO)C(=O)c2cc(NS(=O)(=O)c3cccs3)ccc2O[C@H]1CN(C)Cc1ccncc1
C[C@@H]1CN([C@@H](C)CO)C(=O)c2cc(NS(=O)(=O)c3ccc(Cl)cc3)ccc2O[C@H]1CN(C)S(=O)(=O)c1cn(C)cn1
COc1ccc2c3c([nH]c2c1)[C@@H](CO)N(C[C@]13CCN(CC1)Cc1ccccc1OC)C(=O)Nc1ccc(cc1)F
CO[C@@H]1CN(C)C(=O)c2cc(NS(C)(=O)=O)ccc2OC[C@@H](C)N(C(=O)C2CCOCC2)C[C@@H]1C
CO/N=[N+](\[O-])N(C)C[C@@H](C)O
C[C@@H]1CN([C@H](C)CO)C(=O)c2c(c3ccccc3n2C)-c2ccccc2CO[C@@H]1CN(C)Cc1ccc(F)cc1
C[N+]1(C)C2CCC1CC(OC(=O)C(O)c1ccccc1)C2.[Br-] (stereo not given)
NCc1cccc(Cl)c1
C[C@H]1CCCCO[C@@H](CN(C)C(=O)Nc2ccccc2)[C@@H](C)CN([C@@H](C)CO)C(=O)c2cc(NC(=O)C3CCCCC3)ccc2O1
CN1CCN(C(=O)C[C@H]2CC[C@H]3[C@@H](COC[C@@H](O)CN3C(=O)Nc3cc(Cl)cc(Cl)c3)O2)CC1
NC(=O)NCC#Cc1ccc2c(c1)[C@]1(C(=O)N2)[C@H](c2ccccc2OCCO)N2[C@H](c3ccccc3)[C@H](c3ccccc3)OC(=O)[C@H]2[C@@H]1C(=O)N1CCN(c2ncccn2)CC1
Cc1noc(C)c1NC(=O)N(C)C[C@@H]1Oc2ccc(NC(=O)Cn3cnnn3)cc2C(=O)N([C@H](C)CO)C[C@@H]1C
CN1CCN(C(=O)C[C@H]2C[C@H]3c4cc(NC(=O)c5ccc6c(c5)OCO6)ccc4O[C@H]3[C@@H](CO)O2)CC1
CNC(=O)c1cnn(-c2nc(N)c3ncn([C@@H]4O[C@H](CO)[C@@H](O)[C@H]4O)c3n2)c1
C[C@H](CO)N1C[C@H](C)[C@@H](CN(C)S(=O)(=O)c2ccccc2)Oc2ncc(C#Cc3ccccc3F)cc2C1=O
CC(C)NC(=O)N(C)C[C@@H]1Oc2c(NS(=O)(=O)c3ccccc3)cccc2C(=O)N([C@@H](C)CO)C[C@@H]1C
C[C@H](CO)N1C[C@H](C)[C@H](CN(C)C(=O)Nc2ccc(C(F)(F)F)cc2)Oc2c(NC(=O)Nc3ccc(C(F)(F)F)cc3)cccc2C1=O
C[C@@H]1CCCCO[C@@H](CN(C)Cc2ccc(C(=O)O)cc2)[C@@H](C)CN([C@H](C)CO)C(=O)c2cc(NC(=O)Nc3cccc4ccccc34)ccc2O1
C[C@@H]1CN([C@@H](C)CO)C(=O)c2cc(-c3cncnc3)cnc2O[C@@H]1CN(C)C(=O)CN1CCOCC1
